Out of some 150,000 compounds screened, about 540 (0.36%) showed an effect of 50% or more. The list shows a part of the results.
test system: Plasmodium falciparum; assay: Primary screen in NF54 nanoGlo assay, in single point, at 2uM, 72h; a lower Z score goes with more inhibition; format: functional, Erythrocyte; settings: timepoint 72 hour

SMILES | % Inhibition [%] | Z score
Cc1c(C(=O)N(C)Cc2ccoc2)cnn1[C@H]1CCS(=O)(=O)C1 | -7 | 0.85
CCCCn1ncc(NCc2nc(C)cs2)c1C | -9 | 0.92
COc1ccc(NC(C)(C)C(=O)NC[C@H]2CCN(c3ccccc3C)C2)cc1 | 3 | -0.64
CCn1cc(C(=O)Nc2ccnc(C)c2Cl)cn1 | 5 | -0.72
O=C(c1ccc2ccccc2n1)N1CCN(Cc2nc(-c3ccsc3)no2)CC1 | -3 | 0.43
CC(NC(=O)N1CC(C)C(N2CCOCC2)C1)c1c(F)cncc1F (stereo not drawn) | -17 | 1.9
CCOc1ccc(N2CC(C)N(CCOC)C(C)C2)nn1 (stereo not drawn) | -12 | 1.84
CC(C)CC1C(=O)NCCCN1C(=O)CC1CCCS(=O)(=O)C1 (stereo not drawn) | -5 | 0.78
c1ccc(-c2nc[nH]c2-c2ccc([C@@H]3CCCCO3)o2)cc1 | -9 | 1.52
CCn1cc(N[C@@H](C)C2=Cc3ccccc3OC2)cn1 | -5 | 0.79
CN(C[C@H](O)Cn1cccn1)C1Cc2ccccc2C1 | -5 | 0.74
OCCNc1nc2ccccc2n1Cc1cc2c(cc1Br)OCCO2 | -3 | 0.28
O=C(Nc1ccc2oc(-c3cccnc3)nc2c1)c1ccc2ccccc2c1 | 2 | -0.21
CCC1Cc2ccccc2CN1C(=O)C1CC1C(=O)O (stereo not drawn) | -7 | 0.84
O=C(NC1CC1)[C@@H]1CCCN1c1cc(NCC2CC2)ncn1 | -10 | 0.99
CN1CCC[C@H](CCc2ncnn2CC(F)(F)F)C1 | -11 | 1.96
CC=Cc1ccc(OS(=O)(=O)c2ccc3c(c2)CCC(=O)N3)c(OC)c1 | -4 | 0.37
CCOCC(=O)N(CC(F)F)c1ccc(F)cc1 | -5 | 0.88
O=C1NCCCn2cc(S(=O)(=O)N3CCN(c4ccccc4)CC3)cc21 | 9 | -1.02
COc1nccn2c(CNC(=O)c3ccc(F)c(Cl)c3)nnc12 | -16 | 3.12
Cc1noc([C@H](C)ON=C(N)Cc2ccccc2)n1 | -7 | 0.87

SMILES | % Inhibition [%] | Z score
COCc1ccc(C(=O)NCCN(C)S(C)(=O)=O)s1 | -2 | 0.28
Cn1cccc1C(=O)N1CC(Nc2ccc(F)cc2)C1 | -13 | 1.72
Cc1ccc(OCC(=O)Nc2ccc(S(=O)(=O)N(Cc3ccccc3)c3ccccc3)cc2)cc1 | 19 | -2.23
CC(CN1C(=O)c2cc(-c3ccco3)nn2CC1(C)C(=O)NC1CCCCCC1)c1ccccc1 (stereo not drawn) | 1 | -0.17
CCOC(=O)c1ccc(NC(=O)Cn2nc(-c3ccc(C)cc3)oc2=S)cc1 | -35 | 4.07
Cn1cc(C(N)=O)cc1C(=O)N1CCC(C(=O)Nc2ccccc2)CC1 | -8 | 1.01
Cc1cc(C)cc(NC(=O)CCn2c(N3CCCCC3)nc3ccccc3c2=O)c1 | -15 | 1.43
CCc1noc(CC)c1Cc1nc(-c2cccc(C(=O)OC)c2)no1 | -2 | 0.36
Cc1noc(C2CN(C(=O)C3CCS(=O)(=O)C3)CC2c2ccccc2)n1 (stereo not drawn) | 1 | -0.11
COc1cc(F)c(NC(=O)CN(C)C)cc1OC | -3 | 0.46
O=C(CN1CCN(c2ccc3nc[nH]c(=O)c3n2)CC1)NC1CCCCC1 | 0 | -0.02
COC1CCN(c2nnc(-c3cc(C)oc3C)n2CC2CC2)CC1 | -3 | 0.51
COc1ccc([C@H]2NCCc3c2[nH]c2ccccc32)cc1COc1cccc(C)c1C | 7 | -0.96
Cc1ccc(NC(=O)c2cc3nccc(-c4ccc(F)cc4)n3n2)nc1 | 32 | -0.37
Cn1nc(-c2ccccc2)c(CN(CC2CC2)C(=O)NC(C)(C)C)c1Oc1ccccc1F | -4 | 0.42
Cc1nc(NC2CCCCC2)sc1C(=O)NCc1cccs1 | 25 | -2.85
CC(C)Oc1ncc(Cl)cc1NC(=O)N1CC[S@@+]([O-])C(C)(C)CC1 | 3 | -0.46
CCCc1cc(=O)n(-c2ccc(C(=O)N3CC[C@H](N)C3)cc2)[nH]1 | -4 | 0.74
CC(C)S(=O)(=O)CCCn1cnc(C(C)(C)C)n1 | -2 | 0.22
CN=C(NC)NCc1cc2c(s1)CCC(C)(C)C2 | 5 | -0.74
O=C(CC1(O)CCCCC1)NCCc1ccc(C(F)(F)F)cn1 | 0 | 0.01

SMILES | % Inhibition [%] | Z score
Cc1ccc(NC(=O)[C@H](Cc2ccccc2)NS(=O)(=O)c2ccc3c(c2)c(=O)n(C)c(=O)n3C)cc1C | -1 | 0.12
O=C(NCc1ccccc1)C(F)(F)F | -2 | 0.24
CCOc1ccc2nc(NC(=O)c3cnc(OC4CCOCC4)c(Cl)c3)sc2c1 | -1 | 0.21
O=C(N[C@H]1C[C@H]2OCC[C@@H]12)c1ccccc1N1CCS(=O)(=O)CC1 | 12 | -2.27
O=c1[nH]c(=O)n(Cc2cc(Cl)c3c(c2)OCCCO3)cc1Cl | -10 | 1.92
CC(=O)c1cnc(NCc2nc3cc(F)ccc3[nH]2)nc1C | -7 | 1.26
C[C@@H](CCc1ccccc1)NC1CCC(O)CC1 (stereo partly drawn) | -18 | 3.3
Cc1nn(C(C)C)c(=O)n1Cc1ccc(S(C)(=O)=O)cc1 | -2 | 0.44
Cc1cc(-c2nc(-c3ccc(Br)o3)no2)no1 | 28 | -3.22
CS(=O)(=O)N[C@@H]1CC[C@H]2CCOc3ccccc3C(=O)N3CCN(C4CCCC4)C[C@H]3C(=O)NC[C@H]1O2 | 2 | -0.26
Cc1cc(C(=O)N2CC[C@@]3(CCCN(CC4CC4)C3=O)C2)c2c(C)noc2n1 | -15 | 3.25
CN(Cc1ccccc1)CC(C)(C)NC(=O)NC1CCC(O)CC1 (stereo not drawn) | -15 | 2.32
CCN1CCN(C[C@@H]2CN(c3cnc4ccccc4n3)C[C@@H]2CO)CC1 | -6 | 1.07
COc1c(C)cc(CNC[C@H]2CC[C@@H](CO)O2)cc1C | -11 | 1.25
CCN1CC2(CCN(C(=O)c3ccn(C)n3)CC2)C[C@@H](c2ccccc2)C1=O | -14 | 1.64
CC(C)n1nnc2cc(S(=O)(=O)N3CCC[C@H](C(=O)NCCc4c[nH]c5ccccc45)C3)ccc21 | -19 | 1.68
C[C@@H](Cc1cccnc1)NC(=O)c1coc(COc2ccccc2)n1 | -1 | 0.1
O=C(NCc1ccco1)NCC1(c2ccccc2)CC1 | -15 | 1.71
CC1(C)C[C@@H](CN2CCC(Oc3cc(Cl)ccc3C(=O)N3CCCCC3)CC2)CCO1 | -6 | 0.85
COc1cc(Cl)ccc1C(=O)N1CCC2(CC1)CN(C)C[C@@H]2c1nnc(C(C)C)o1 | -4 | 0.71
CC[C@H]1COCCN1S(=O)(=O)c1c(C)nn(C)c1C | -11 | 1.73

SMILES | % Inhibition [%] | Z score
Cc1ccccc1NC(=O)Cn1c(=O)n(Cc2ccc3c(c2)OCO3)c(=O)c2sccc21 | 8 | -1.12
CN1CC[C@@H](c2nc(-c3cc(OC(F)F)ccc3F)no2)S1(=O)=O | 0 | -0.03
COC(=O)c1csc(NC(=O)C2CCN(c3cc4c(nn3)CCC4)CC2)n1 | 7 | -0.92
O=C(NCCN1CCOCC1)c1nc(-n2cnnc2)ccc1Br | -4 | 0.55
Cc1cnc(C(=O)Nn2cnc3ccccc3c2=O)cn1 | -7 | 0.96
O=C(NCc1nc2c(s1)COCC2)Nc1cc2cc[nH]c2cn1 | -8 | 0.93
O=C(NC1CCC(CC2CCC(NC(=O)C3CC3c3ccccc3)CC2)CC1)C1CC1c1ccccc1 (stereo not drawn) | -15 | 1.85
COCCNC(=O)N1CC(=O)N(Cc2ccccc2)C1 | -13 | 1.22
COc1ccc(C)cc1S(=O)(=O)N(C)c1cnn(C)c1 | -5 | 0.68
COCC(C)(C#N)NC(=O)C1Cc2ccccc21 (stereo not drawn) | 2 | -0.32
CC(C)Nc1ncc(Br)c(C(=O)N2CC[C@H](F)C2)n1 | 7 | -0.91
Cn1c(CNC(=O)C2(C)CC3CCC2O3)nnc1C1CC1 (stereo not drawn) | -6 | 0.87
COc1cccc(N2CCN(C(=O)NCc3ccoc3)CC2(C)C)c1 | 0 | -0.01
Cc1nnc(C(=O)N2CCC[C@H](S(=O)(=O)NC3CCCC3)C2)s1 | -13 | 1.87
O=C(Cc1cccnc1)N1CCC([C@H]2c3[nH]cnc3CCN2C(=O)Cc2ccccc2)CC1 | -10 | 1.51
Cn1cccc1C(=O)N[C@H]1CCc2cncn2C1 | -14 | 1.82
Cc1cc(CS(=O)(=O)Cc2c(Cl)cccc2Cl)no1 | -16 | 2.13
CCCOc1ccc(-c2ccc(-c3nc(-c4ccc(C)cc4)no3)cc2)cc1F | -4 | 0.46
C[C@H]1CCc2sc(C(=O)N3CCc4nc(N)sc4C3)cc2C1 | -1 | 0.11
Cc1ncccc1CN1C[C@H](CCN2CCCC2=O)c2ccccc21 | -1 | 0.13
CC(C)(C)OC(=O)NC1CCC2CN(C(=O)c3ccc[nH]3)CC21 (stereo not drawn) | -5 | 0.69
